± gives the uncertainty stated by the source. The sequences are guide strands of siRNAs; only the seed at positions 2 to 7 varies.
Columns and labels:
[1] = tested on: 3LL; experiment: cell viability relative to siNT1 control; higher = less toxic; details: concentration: 10 nM; 96 h; Mus musculus;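 further: Luminescence-based viability of cells reverse transfected in 384-well plates with lipid-complexed siRNAs built on a non-toxic 19mer backbone whose passenger strand carries 2′-O-methyl groups at positions 1 and 2, triplicates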
[2] = tested on: M565; experiment: cell viability relative to lipid-only control; HeyA8 human ovarian and H460 human lung cancer; M565 mouse liver and 3LL mouse lung cancer; siNT1 is a non-toxic control siRNA; higher = less toxic; details: concentration: 10 nM; 96 h; Mus musculus
[3] = tested on: HeyA8; experiment: as above; details: concentration: 10 nM; 96 h; Homo sapiens
[4] = tested on: H460; experiment: as above; details: concentration: 10 nM; 96 h; Homo sapiens
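Wherever cell viability relative to lipid-only control is given: reverse lipid transfection in 384-well plates, in triplicate, of duplexes on a non-toxic 19mer backbone with passenger strand 2′-O-methylated at positions 1 and 2, luminescence viability read-out.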

Sequence	cell viability [1] [%]	cell viability [2] [%]	cell viability [3] [%]	cell viability [4] [%]
UGCCACUACAUGUAAACCAAA	47.5 ± 3.6	15.5 ± 10	46.1 ± 3.3	32.7 ± 5.9
UCCAAUUACAUGUAAACCAAA	109 ± 32	65.8 ± 4.1	74.5 ± 6.9	76.4 ± 12
UUGUUAUACAUGUAAACCAAA	53.6 ± 6	50.6 ± 14	71.7 ± 7.3	63.9 ± 4.3
UCCUUUCACAUGUAAACCAAA	86.4 ± 18	72 ± 13	46.3 ± 2.8	57.7 ± 3.9
UCGCACCACAUGUAAACCAAA	63.1 ± 6.7	35.6 ± 5	57.2 ± 1.1	43.3 ± 1.1
UCACCAAACAUGUAAACCAAA	91.4 ± 16	60.2 ± 4.7	90.1 ± 6.5	40 ± 2.2
UUCUUUCACAUGUAAACCAAA	63.1 ± 6.9	105 ± 26	48.5 ± 14	53.7 ± 3.4
UCGCUCUACAUGUAAACCAAA	79.4 ± 17	75.2 ± 8.2	47.5 ± 3	61.2 ± 10
UAUAAGAACAUGUAAACCAAA	108 ± 21	86.9 ± 18	101 ± 12	91.3 ± 25
UCUCAUGACAUGUAAACCAAA	103 ± 15	74.8 ± 23	89.2 ± 4.5	24.6 ± 4.6
UGGUCCGACAUGUAAACCAAA	57.9 ± 8.3	21.9 ± 7.1	24.9 ± 2.4	23.3 ± 3
UACGGAGACAUGUAAACCAAA	86.9 ± 16	80.4 ± 4	83.7 ± 7.2	88.1 ± 19
UCUCCCUACAUGUAAACCAAA	94.1 ± 12	80.6 ± 10	65.5 ± 4.2	38.7 ± 2.5
UACGUUUACAUGUAAACCAAA	86.9 ± 9.6	63.8 ± 6.8	44.5 ± 3.9	79.9 ± 6.8
UUAGGUAACAUGUAAACCAAA	85.3 ± 9.3	83.4 ± 2.8	92.1 ± 6.8	81.6 ± 14
UGGCUAUACAUGUAAACCAAA	36.4 ± 11	33 ± 7.3	3.56 ± 1.1	31 ± 0.91
UCGCGUCACAUGUAAACCAAA	81.3 ± 13	34.4 ± 0.62	61.7 ± 2.9	56.8 ± 12
UCAGGUUACAUGUAAACCAAA	102 ± 12	52.4 ± 5.9	76.7 ± 5	56.2 ± 12
UUGAGGUACAUGUAAACCAAA	16.8 ± 5.3	9.22 ± 0.33	41.8 ± 1	38.1 ± 4.9
UCACCGCACAUGUAAACCAAA	57.2 ± 19	30.4 ± 3.8	53.8 ± 2.7	38.8 ± 3.7

Sequence	cell viability [1] [%]	cell viability [2] [%]	cell viability [3] [%]	cell viability [4] [%]
UUAUCGCACAUGUAAACCAAA	9.82 ± 3.7	34.4 ± 17	57.6 ± 8	38.5 ± 6
UUAGGGCACAUGUAAACCAAA	69.6 ± 2.9	27.8 ± 8.3	36.5 ± 2.5	41.3 ± 5.7
UCCGCGAACAUGUAAACCAAA	105 ± 18	70.4 ± 12	75.5 ± 5.7	67.5 ± 5.8
UGUCAAAACAUGUAAACCAAA	89.4 ± 11	61.5 ± 10	95.6 ± 6.9	49.6 ± 6.8
UCCCGAGACAUGUAAACCAAA	110 ± 18	63.4 ± 12	94.5 ± 1.1	79.7 ± 4.7
UGGGAAUACAUGUAAACCAAA	76.4 ± 4.8	42.4 ± 2.5	57.3 ± 3.7	56.9 ± 2.4
UCUAAUGACAUGUAAACCAAA	93.3 ± 19	79 ± 19	86.4 ± 8.8	67.3 ± 3.1
UAAAGAUACAUGUAAACCAAA	94.1 ± 6.4	92.6 ± 9.3	90.9 ± 4.2	76 ± 10
UUAGUCGACAUGUAAACCAAA	94.8 ± 13	84.3 ± 14	100 ± 4.9	82.1 ± 8.7
UGCGCGGACAUGUAAACCAAA	54.7 ± 13	47.9 ± 4.3	44.7 ± 4.3	40.7 ± 2.8
UAUGCCGACAUGUAAACCAAA	104 ± 7.9	79.3 ± 8.1	94.5 ± 4.3	81.5 ± 7.1
UGUACCAACAUGUAAACCAAA	68.4 ± 5.5	69.2 ± 9.8	89.1 ± 2.5	77 ± 6.4
UUAAACUACAUGUAAACCAAA	94.1 ± 18	109 ± 11	89.1 ± 2.8	69.8 ± 17
UGUUCCGACAUGUAAACCAAA	61.3 ± 16	17.4 ± 2.6	13 ± 0.48	31.6 ± 5
UCAUAAGACAUGUAAACCAAA	95.1 ± 12	68 ± 12	88.9 ± 5.7	30.5 ± 7.5
UCCACAAACAUGUAAACCAAA	101 ± 28	66.2 ± 18	82.9 ± 6	47.8 ± 4.9
UUAUGUUACAUGUAAACCAAA	29 ± 6	33.9 ± 4.3	51.4 ± 4	55 ± 9.9
UUCUAGUACAUGUAAACCAAA	41.7 ± 10	21.8 ± 4.8	60.2 ± 1.6	49.4 ± 5
UUUUUUUACAUGUAAACCAAA	91 ± 8	111 ± 18	80.8 ± 3.2	70.6 ± 14
UAUCACAACAUGUAAACCAAA	106 ± 7.7	113 ± 18	106 ± 3.2	36.1 ± 3.2

Sequence	cell viability [1] [%]	cell viability [2] [%]	cell viability [3] [%]	cell viability [4] [%]
UACUGGAACAUGUAAACCAAA	55.9 ± 13	30.4 ± 1.2	12.8 ± 0.013	81 ± 0.89
UGGACGCACAUGUAAACCAAA	34.7 ± 4.3	7.77 ± 2.1	49.1 ± 6.1	37.4 ± 3
UGAGUGCACAUGUAAACCAAA	41.4 ± 10	61.3 ± 17	62.7 ± 4.2	46.9 ± 9
UAGGUGGACAUGUAAACCAAA	4.56 ± 1.2	9.01 ± 2.6	14 ± 0.94	40.2 ± 14
UAUCCGCACAUGUAAACCAAA	93.4 ± 8.8	72.3 ± 15	64.7 ± 8.4	67.9 ± 5.3
UUUACUUACAUGUAAACCAAA	90.8 ± 4.6	73.5 ± 8.2	97.4 ± 5	90.7 ± 13
UCGUAGGACAUGUAAACCAAA	86.9 ± 5.5	57.1 ± 6.7	37.7 ± 6.3	62.1 ± 8.1
UUCUCCCACAUGUAAACCAAA	12.4 ± 3.3	85.8 ± 10	52.6 ± 2.1	37.3 ± 4.5
UGAUAGGACAUGUAAACCAAA	9.89 ± 5.4	48.7 ± 10	50.3 ± 4.6	51.6 ± 11
UCUGUUCACAUGUAAACCAAA	98 ± 12	34.6 ± 4.2	62.5 ± 4.8	56.2 ± 9.2
UUAUAGGACAUGUAAACCAAA	32.6 ± 7.3	56.9 ± 9.5	63.1 ± 5	48 ± 7.6
UACCAACACAUGUAAACCAAA	66.1 ± 8.3	21.7 ± 3.3	78.4 ± 9.2	55.7 ± 2.9
UAUGUUCACAUGUAAACCAAA	46.6 ± 4.6	16.9 ± 2.2	59.5 ± 5	59.5 ± 12
UGGUGCGACAUGUAAACCAAA	34.2 ± 5.3	23.9 ± 2	8.24 ± 1	17.4 ± 2.3
UAUCCCUACAUGUAAACCAAA	19.3 ± 4.9	64.7 ± 8.8	82.2 ± 2.7	53.1 ± 5
UGAACUAACAUGUAAACCAAA	92.9 ± 12	73.4 ± 4.9	95.4 ± 4.1	96.3 ± 18
UCGUGGAACAUGUAAACCAAA	92.6 ± 14	48.6 ± 6.2	39.2 ± 2.1	74.9 ± 8.4
UUCCCGGACAUGUAAACCAAA	72.3 ± 22	55.4 ± 7.3	78.2 ± 2.2	57.3 ± 3
UGAAUGGACAUGUAAACCAAA	14.8 ± 5.3	6.05 ± 0.3	13.2 ± 0.51	41.4 ± 2.7

Source: the supplement of paper PMC6206098
